The list shows a part of the results. Cut-off read from the data, not from the text of the source: active = 3.2 or more and inactive = the rest. Only a few entries rise above the background.
Biological target: SHP2 C-SH2 domain E139D
Assay: enrichment score (SH2-bound / input frequency) (ratio); bacterial display of known human phosphotyrosine sites (pTyr-Var adds point mutants) read by sequencing; higher = stronger binding; tyrosines were phosphorylated by kinases first
Settings: peptide library: pTyr-Var
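Note: displayed peptides selected on beads carrying the immobilized SH2 domain, with library peptides lacking any tyrosine serving as negative controls.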

Enrichment score, inactive:
EPSVPYRGTVF [GLI3_Y104] 0.608, RLKAKYAAATG [GLI3_Y933] 0.448, LPKVSYVKAID [GLRA1_Y307] 0.941, LPKVSCVKAID [GLRA1_Y307_Y307C] 1.99, HSGLAYTMERS [GLUD1_Y512] 0.843, FSGLAYTMERS [GLUD1_Y512_H507Y_YF] 1.04, SVQVDYMKTIL [GLYATL2_Y127] 0.996, VTRANYFIRDE [GNAS_Y339_K338N] 0.843, APSGNYVACGG [GNB1_Y111] 0.52, IIWDSYTTNKV [GNB1_Y85] 1.18, IMWDSYTTNKV [GNB3_Y85_V81M] 1.72, AKNKDYMSIIR [GNE_Y197] 0.896, DVLVEYQGEGR [GNS_Y416] 0.716, DVLVEYQEEGR [GNS_Y416_G418E] 0.618, LTQRTYMSENA [GPAA1_Y49] 0.857, LTQRTYMSENN [GPAA1_Y49_A54N] 1.25, KYRREYILSLE [GPC3_Y299_W296R] 0.392, KFRREYILSLE [GPC3_Y299_W296R_YF] 0.576

Biological target: SHP2 C-SH2 domain wild-type
Assay: as above
Settings: peptide library: pTyr-Var

Enrichment score, inactive:
EPSVPYRGTVF [GLI3_Y104] 0.532, RLKAKYAAATG [GLI3_Y933] 0.274, LPKVSYVKAID [GLRA1_Y307] 0.792, LPKVSCVKAID [GLRA1_Y307_Y307C] 1.15, HSGLAYTMERS [GLUD1_Y512] 0.837, FSGLAYTMERS [GLUD1_Y512_H507Y_YF] 0.991, SVQVDYMKTIL [GLYATL2_Y127] 0.782, VTRANYFIRDE [GNAS_Y339_K338N] 0.923, APSGNYVACGG [GNB1_Y111] 0.714, IIWDSYTTNKV [GNB1_Y85] 1.45, IMWDSYTTNKV [GNB3_Y85_V81M] 1.36, AKNKDYMSIIR [GNE_Y197] 0.786, DVLVEYQGEGR [GNS_Y416] 0.715, DVLVEYQEEGR [GNS_Y416_G418E] 0.498, LTQRTYMSENA [GPAA1_Y49] 0.768, LTQRTYMSENN [GPAA1_Y49_A54N] 0.831, KYRREYILSLE [GPC3_Y299_W296R] 0.275, KFRREYILSLE [GPC3_Y299_W296R_YF] 0.398

Biological target: SHP2 N-SH2 domain L43F
Assay: as above
Settings: peptide library: pTyr-Var

Enrichment score, inactive:
EPSVPYRGTVF [GLI3_Y104] 0.682, RLKAKYAAATG [GLI3_Y933] 0.453, LPKVSYVKAID [GLRA1_Y307] 0.904, LPKVSCVKAID [GLRA1_Y307_Y307C] 1.38, HSGLAYTMERS [GLUD1_Y512] 0.91, FSGLAYTMERS [GLUD1_Y512_H507Y_YF] 0.922, SVQVDYMKTIL [GLYATL2_Y127] 0.915, VTRANYFIRDE [GNAS_Y339_K338N] 0.994, APSGNYVACGG [GNB1_Y111] 0.669, IIWDSYTTNKV [GNB1_Y85] 1.16, IMWDSYTTNKV [GNB3_Y85_V81M] 1.28, AKNKDYMSIIR [GNE_Y197] 0.799, DVLVEYQGEGR [GNS_Y416] 0.715, DVLVEYQEEGR [GNS_Y416_G418E] 0.588, LTQRTYMSENA [GPAA1_Y49] 0.668, LTQRTYMSENN [GPAA1_Y49_A54N] 0.742, KYRREYILSLE [GPC3_Y299_W296R] 0.35, KFRREYILSLE [GPC3_Y299_W296R_YF] 0.324

Biological target: SHP2 N-SH2 domain T42A
Assay: as above
Settings: peptide library: pTyr-Var

Enrichment score, inactive:
EPSVPYRGTVF [GLI3_Y104] 0.546, RLKAKYAAATG [GLI3_Y933] 0.583, LPKVSYVKAID [GLRA1_Y307] 0.864, LPKVSCVKAID [GLRA1_Y307_Y307C] 1.4, HSGLAYTMERS [GLUD1_Y512] 0.771, FSGLAYTMERS [GLUD1_Y512_H507Y_YF] 0.918, SVQVDYMKTIL [GLYATL2_Y127] 1.19, VTRANYFIRDE [GNAS_Y339_K338N] 0.705, APSGNYVACGG [GNB1_Y111] 0.577, IIWDSYTTNKV [GNB1_Y85] 1.4, IMWDSYTTNKV [GNB3_Y85_V81M] 1.31, AKNKDYMSIIR [GNE_Y197] 0.572, DVLVEYQGEGR [GNS_Y416] 0.599, DVLVEYQEEGR [GNS_Y416_G418E] 0.562, LTQRTYMSENA [GPAA1_Y49] 0.782, LTQRTYMSENN [GPAA1_Y49_A54N] 0.982, KYRREYILSLE [GPC3_Y299_W296R] 0.302, KFRREYILSLE [GPC3_Y299_W296R_YF] 0.55

Biological target: SHP2 N-SH2 domain T52S
Assay: as above
Settings: peptide library: pTyr-Var

Enrichment score, inactive:
EPSVPYRGTVF [GLI3_Y104] 0.634, RLKAKYAAATG [GLI3_Y933] 0.461, LPKVSYVKAID [GLRA1_Y307] 0.863, LPKVSCVKAID [GLRA1_Y307_Y307C] 1.49, HSGLAYTMERS [GLUD1_Y512] 0.763, FSGLAYTMERS [GLUD1_Y512_H507Y_YF] 0.78, SVQVDYMKTIL [GLYATL2_Y127] 1.02, VTRANYFIRDE [GNAS_Y339_K338N] 0.639, APSGNYVACGG [GNB1_Y111] 0.607, IIWDSYTTNKV [GNB1_Y85] 1.3, IMWDSYTTNKV [GNB3_Y85_V81M] 1.48, AKNKDYMSIIR [GNE_Y197] 0.777, DVLVEYQGEGR [GNS_Y416] 0.758, DVLVEYQEEGR [GNS_Y416_G418E] 0.548, LTQRTYMSENA [GPAA1_Y49] 0.791, LTQRTYMSENN [GPAA1_Y49_A54N] 1.02, KYRREYILSLE [GPC3_Y299_W296R] 0.36, KFRREYILSLE [GPC3_Y299_W296R_YF] 0.476

Biological target: SHP2 N-SH2 domain wild-type
Assay: as above
Settings: peptide library: pTyr-Var

Enrichment score, inactive:
EPSVPYRGTVF [GLI3_Y104] 0.636, RLKAKYAAATG [GLI3_Y933] 0.5, LPKVSYVKAID [GLRA1_Y307] 0.988, LPKVSCVKAID [GLRA1_Y307_Y307C] 1.05, HSGLAYTMERS [GLUD1_Y512] 0.909, FSGLAYTMERS [GLUD1_Y512_H507Y_YF] 1.01, SVQVDYMKTIL [GLYATL2_Y127] 0.908, VTRANYFIRDE [GNAS_Y339_K338N] 1.09, APSGNYVACGG [GNB1_Y111] 0.742, IIWDSYTTNKV [GNB1_Y85] 1.2, IMWDSYTTNKV [GNB3_Y85_V81M] 1.72, AKNKDYMSIIR [GNE_Y197] 1.05, DVLVEYQGEGR [GNS_Y416] 0.776, DVLVEYQEEGR [GNS_Y416_G418E] 0.73, LTQRTYMSENA [GPAA1_Y49] 0.71, LTQRTYMSENN [GPAA1_Y49_A54N] 0.804, KYRREYILSLE [GPC3_Y299_W296R] 0.364, KFRREYILSLE [GPC3_Y299_W296R_YF] 0.393

Source: the supplement of paper PMC10369915
